According to the supplement of paper PMC8728848:
The list shows a part of the results.

What was measured:
Assay in all cases: glycan array binding signal (z-score within array); higher = stronger binding
Conditions in all cases: glycan notation: IUPAC condensed, linker removed
[1] = target: GlcNAc(b1-3)Gal(b1-4)GlcNAc(b1-3)Gal(b1-4)GlcNAc(b1-3)Gal(b1-4)GlcNAc(b1-2)[GlcNAc(b1-3)Gal(b1-4)GlcNAc(b1-3)Gal(b1-4)GlcNAc(b1-3)Gal(b1-4)GlcNAc(b1-6)]Man(a1-6)[GlcNAc(b1-3)Gal(b1-4)GlcNAc(b1-3)Gal(b1-4)GlcNAc(b1-3)Gal(b1-4)GlcNAc(b1-2)Man(a1-3)]Man(b1-4)GlcNAc(b1-4)[Fuc(a1-6)]GlcNAc
Outline: (§1)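 Glycan array binding is given as a within-array Z-score, which can be read as non-binding when negative. The arrays, 3228 of them, came from the Consortium for Functional Glycomics database and were retained only where the protein sequence was available. Z-scores were averaged across arrays of the same protein sequence at different concentrations or buffers and across linkers.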

[2] = target: GlcNAc(b1-3)Gal(b1-4)GlcNAc(b1-3)Gal(b1-4)GlcNAc(b1-3)Gal(b1-4)GlcNAc(b1-3)Gal(b1-4)GlcNAc(b1-2)Man(a1-3)[GlcNAc(b1-3)Gal(b1-4)GlcNAc(b1-3)Gal(b1-4)GlcNAc(b1-3)Gal(b1-4)GlcNAc(b1-3)Gal(b1-4)GlcNAc(b1-2)Man(a1-6)]Man(b1-4)GlcNAc(b1-4)GlcNAc
Outline: as §1

[3] = target: GlcNAc(b1-3)Gal(b1-4)GlcNAc(b1-3)Gal(b1-4)GlcNAc(b1-3)Gal(b1-4)GlcNAc(b1-3)Gal(b1-4)GlcNAc(b1-2)Man(a1-3)[GlcNAc(b1-3)Gal(b1-4)GlcNAc(b1-3)Gal(b1-4)GlcNAc(b1-3)Gal(b1-4)GlcNAc(b1-3)Gal(b1-4)GlcNAc(b1-2)Man(a1-6)]Man(b1-4)GlcNAc(b1-4)[Fuc(a1-6)]GlcNAc
Outline: as §1

[4] = target: GlcNAc(b1-3)Gal(b1-4)GlcNAc(b1-3)Gal(b1-4)GlcNAc(b1-3)Gal(b1-4)GlcNAc(b1-3)Gal(b1-4)GlcNAc(b1-2)[GlcNAc(b1-3)Gal(b1-4)GlcNAc(b1-3)Gal(b1-4)GlcNAc(b1-3)Gal(b1-4)GlcNAc(b1-3)Gal(b1-4)GlcNAc(b1-6)]Man(a1-6)[GlcNAc(b1-3)Gal(b1-4)GlcNAc(b1-3)Gal(b1-4)GlcNAc(b1-3)Gal(b1-4)GlcNAc(b1-3)Gal(b1-4)GlcNAc(b1-2)Man(a1-3)]Man(b1-4)GlcNAc(b1-4)[Fuc(a1-6)]GlcNAc
Outline: as §1

[5] = target: GlcNAc(b1-3)Gal(b1-4)GlcNAc(b1-3)Gal(b1-4)GlcNAc(b1-3)GalNAc
Outline: as §1

[6] = target: GlcNAc(b1-3)Gal(b1-4)GlcNAc(b1-3)GalNAc
Outline: as §1

[7] = target: GlcNAc(b1-3)Gal(b1-4)GlcNAc(b1-3)[GlcNAc(b1-3)Gal(b1-4)GlcNAc(b1-3)]GalNAc
Outline: as §1

[8] = target: GlcNAc(b1-3)Gal(b1-4)GlcNAc(b1-6)[Gal(b1-3)]GalNAc
Outline: as §1

[9] = target: GlcNAc(b1-3)Gal(b1-4)GlcNAc(b1-6)[GlcNAc(b1-3)Gal(b1-3)]GalNAc
Outline: as §1

[10] = target: GlcNAc(b1-3)Gal(b1-4)GlcNAc(b1-6)[GlcNAc(b1-3)]Gal(b1-4)GlcNAc
Outline: as §1

[11] = target: GlcNAc(b1-3)GalNAc
Outline: as §1

[12] = target: GlcNAc(b1-3)Man
Outline: as §1

[13] = target: GlcNAc(b1-3)[GlcNAc(b1-4)][GlcNAc(b1-6)]GlcNAc
Outline: as §1

[14] = target: GlcNAc(b1-3)[GlcNAc(b1-6)]Gal(b1-4)GlcNAc
Outline: as §1

[15] = target: GlcNAc(b1-3)[GlcNAc(b1-6)]GalNAc
Outline: as §1

[16] = target: GlcNAc(b1-3)[GlcNAc(b1-6)]GlcNAc(b1-4)GlcNAc
Outline: as §1

[17] = target: GlcNAc(b1-4)Gal(b1-4)GlcNAc
Outline: as §1

[18] = target: GlcNAc(b1-4)GlcNAc
Outline: as §1

[19] = target: GlcNAc(b1-4)GlcNAc(b1-4)GlcNAc
Outline: as §1

[20] = target: GlcNAc(b1-4)GlcNAc(b1-4)GlcNAc(b1-4)GlcNAc(b1-4)GlcNAc
Outline: as §1

[21] = target: GlcNAc(b1-4)GlcNAc(b1-4)GlcNAc(b1-4)GlcNAc(b1-4)GlcNAc(b1-4)GlcNAc
Outline: as §1

[22] = target: GlcNAc(b1-4)[GlcNAc(b1-6)]GalNAc
Outline: as §1

[23] = target: GlcNAc(b1-6)Gal(b1-4)GlcNAc
Outline: as §1

[24] = target: GlcNAc(b1-6)GalNAc
Outline: as §1

[25] = target: GlcNAc3Prop(b1-4)GlcNAc
Outline: as §1

[26] = target: GlcNAc6S(b1-3)Gal(b1-4)GlcNAc
Outline: as §1

[27] = target: Kdn(a2-3)Gal(b1-3)GalNAc
Outline: as §1

[28] = target: Kdn(a2-3)Gal(b1-3)GlcNAc
Outline: as §1

[29] = target: Kdn(a2-3)Gal(b1-4)Glc
Outline: as §1

[30] = target: Kdn(a2-3)Gal(b1-4)GlcNAc
Outline: as §1

[31] = target: Kdn(a2-3)Gal(b1-4)[Fuc(a1-3)]GlcNAc
Outline: as §1

[32] = target: Kdn(a2-6)Gal(b1-4)GlcNAc
Outline: as §1

[33] = target: Man(a1-2)Man(a1-2)Man(a1-3)Man
Outline: as §1

[34] = target: Man(a1-2)Man(a1-2)Man(a1-6)[Man(a1-3)]Man
Outline: as §1

[35] = target: Man(a1-2)Man(a1-3)Man
Outline: as §1

[36] = target: Man(a1-2)Man(a1-3)[Man(a1-2)Man(a1-6)]Man
Outline: as §1

[37] = target: Man(a1-2)Man(a1-3)[Man(a1-2)Man(a1-6)]Man(a1-6)[Man(a1-2)Man(a1-2)Man(a1-3)]Man
Outline: as §1

[38] = target: Man(a1-2)Man(a1-3)[Man(a1-2)Man(a1-6)]Man(a1-6)[Man(a1-2)Man(a1-2)Man(a1-3)]Man(b1-4)GlcNAc(b1-4)GlcNAc
Outline: as §1

[39] = target: Man(a1-2)Man(a1-3)[Man(a1-6)]Man(a1-6)[Man(a1-2)Man(a1-3)]Man(b1-4)GlcNAc(b1-4)GlcNAc
Outline: as §1

[40] = target: Man(a1-2)Man(a1-6)[Man(a1-3)]Man(a1-6)[Man(a1-2)Man(a1-2)Man(a1-3)]Man
Outline: as §1

[41] = target: Man(a1-2)Man(a1-6)[Man(a1-3)]Man(a1-6)[Man(a1-2)Man(a1-2)Man(a1-3)]Man(b1-4)GlcNAc(b1-4)GlcNAc
Outline: as §1

[42] = target: Man(a1-3)[Man(a1-6)]Man
Outline: as §1

[43] = target: Man(a1-3)[Man(a1-6)]Man(a1-6)[Man(a1-2)Man(a1-3)]Man(b1-4)GlcNAc(b1-4)GlcNAc
Outline: as §1

[44] = target: Man(a1-3)[Man(a1-6)]Man(a1-6)[Man(a1-3)]Man
Outline: as §1

[45] = target: Man(a1-3)[Man(a1-6)]Man(a1-6)[Man(a1-3)]Man(b1-4)GlcNAc(b1-4)GlcNAc
Outline: as §1

B1: HPA (Helix pomatia), Q2F1K8 (protein)
chain: MQAFYSGLLLLCVVAFAAAQRVQSGKIDCGNDAGWAKVPSDDPGRDNTRELAKNITFASPYCRPPVVLLSITQLDVEQSQNLRVIARLYSVSPTGFKASCYTWHNTKVYSMSISWISIENY
**Q.** With B1 as the binder, how does the “glycan array binding signal (z-score)” value [1] read?
**A.** 0.115

**Q.** And the “glycan array binding signal (z-score)” value [2]?
**A.** 0.074

**Q.** What about the “glycan array binding signal (z-score)” value [3] of the same binder?
**A.** -0.002

**Q.** What about the “glycan array binding signal (z-score)” value [4] of the same binder?
**A.** 1.74

**Q.** What about the “glycan array binding signal (z-score)” value [5] of the same binder?
**A.** -0.344

**Q.** And the “glycan array binding signal (z-score)” value [6]?
**A.** -0.34

**Q.** And the “glycan array binding signal (z-score)” value [7]?
**A.** -0.328

**Q.** What about the “glycan array binding signal (z-score)” value [8] of the same binder?
**A.** -0.305

**Q.** What about the “glycan array binding signal (z-score)” value [9] of the same binder?
**A.** -0.383

**Q.** And the “glycan array binding signal (z-score)” value [10]?
**A.** -0.301

**Q.** What about the “glycan array binding signal (z-score)” value [11] of the same binder?
**A.** 0.296

**Q.** And the “glycan array binding signal (z-score)” value [12]?
**A.** -0.275

**Q.** What about the “glycan array binding signal (z-score)” value [13] of the same binder?
**A.** -0.213

**Q.** What about the “glycan array binding signal (z-score)” value [14] of the same binder?
**A.** -0.307

**Q.** What about the “glycan array binding signal (z-score)” value [15] of the same binder?
**A.** -0.304

**Q.** What about the “glycan array binding signal (z-score)” value [16] of the same binder?
**A.** -0.295

**Q.** What about the “glycan array binding signal (z-score)” value [17] of the same binder?
**A.** 0.443

**Q.** And the “glycan array binding signal (z-score)” value [18]?
**A.** -0.249

**Q.** And the “glycan array binding signal (z-score)” value [19]?
**A.** -0.268

**Q.** What about the “glycan array binding signal (z-score)” value [20] of the same binder?
**A.** -0.314

**Q.** What about the “glycan array binding signal (z-score)” value [21] of the same binder?
**A.** -0.223

**Q.** What about the “glycan array binding signal (z-score)” value [22] of the same binder?
**A.** -0.401

**Q.** And the “glycan array binding signal (z-score)” value [23]?
**A.** -0.35

**Q.** What about the “glycan array binding signal (z-score)” value [24] of the same binder?
**A.** -0.293

**Q.** What about the “glycan array binding signal (z-score)” value [25] of the same binder?
**A.** -0.979

**Q.** And the “glycan array binding signal (z-score)” value [26]?
**A.** -0.208

**Q.** And the “glycan array binding signal (z-score)” value [27]?
**A.** 0.037

**Q.** And the “glycan array binding signal (z-score)” value [28]?
**A.** -0.188

**Q.** And the “glycan array binding signal (z-score)” value [29]?
**A.** -0.216

**Q.** And the “glycan array binding signal (z-score)” value [30]?
**A.** -0.14

**Q.** And the “glycan array binding signal (z-score)” value [31]?
**A.** 0.172

**Q.** What about the “glycan array binding signal (z-score)” value [32] of the same binder?
**A.** -0.242

**Q.** And the “glycan array binding signal (z-score)” value [33]?
**A.** -0.088

**Q.** What about the “glycan array binding signal (z-score)” value [34] of the same binder?
**A.** -0.246

**Q.** What about the “glycan array binding signal (z-score)” value [35] of the same binder?
**A.** -0.22

**Q.** And the “glycan array binding signal (z-score)” value [36]?
**A.** -0.231

**Q.** What about the “glycan array binding signal (z-score)” value [37] of the same binder?
**A.** -0.178

**Q.** And the “glycan array binding signal (z-score)” value [38]?
**A.** -0.15

**Q.** And the “glycan array binding signal (z-score)” value [39]?
**A.** -0.201

**Q.** And the “glycan array binding signal (z-score)” value [40]?
**A.** -0.253

**Q.** And the “glycan array binding signal (z-score)” value [41]?
**A.** -0.401

**Q.** And the “glycan array binding signal (z-score)” value [42]?
**A.** -0.163

**Q.** And the “glycan array binding signal (z-score)” value [43]?
**A.** 0.257

**Q.** And the “glycan array binding signal (z-score)” value [44]?
**A.** -0.135

**Q.** What about the “glycan array binding signal (z-score)” value [45] of the same binder?
**A.** -0.156
